Laboratory results: PubChem BioAssay AID504333 (National Center for Advancing Translational Sciences (NCATS), 2011)
About 16,000 (4.4%) of roughly 360,000 compounds were called active. The inconclusive results got no clear call from the source; some entries with a clear call stand among them for comparison. Calls follow the shape of the dose curve; as a rule, active = well fitted inhibition curve with a large enough effect; inconclusive = small, poorly fitted or top-dose-only effect; inactive = no such curve, though single readings can be large or run the other way. Potencies of inconclusive entries are doubtful fits and often do not repeat.
Also: nearly all actives have a fitted effect of over 60% in size.
Potency is read from the fitted curve at half-maximal effect; tags tell the direction and shape of the fitted curve.

These compounds were tested against Bromodomain adjacent to zinc finger domain protein 2B (Homo sapiens) (UniProt Q9UIF8) (assay: qHTS Assay for Inhibitors of BAZ2B). Details: AlphaScreen BAZ2B-H3K14Ac peptide displacement; series mostly up to 114 µM.
UniProt Q9UIF8, sequence (Q9UIF8 whole entry, looked up, the tested form may be a part): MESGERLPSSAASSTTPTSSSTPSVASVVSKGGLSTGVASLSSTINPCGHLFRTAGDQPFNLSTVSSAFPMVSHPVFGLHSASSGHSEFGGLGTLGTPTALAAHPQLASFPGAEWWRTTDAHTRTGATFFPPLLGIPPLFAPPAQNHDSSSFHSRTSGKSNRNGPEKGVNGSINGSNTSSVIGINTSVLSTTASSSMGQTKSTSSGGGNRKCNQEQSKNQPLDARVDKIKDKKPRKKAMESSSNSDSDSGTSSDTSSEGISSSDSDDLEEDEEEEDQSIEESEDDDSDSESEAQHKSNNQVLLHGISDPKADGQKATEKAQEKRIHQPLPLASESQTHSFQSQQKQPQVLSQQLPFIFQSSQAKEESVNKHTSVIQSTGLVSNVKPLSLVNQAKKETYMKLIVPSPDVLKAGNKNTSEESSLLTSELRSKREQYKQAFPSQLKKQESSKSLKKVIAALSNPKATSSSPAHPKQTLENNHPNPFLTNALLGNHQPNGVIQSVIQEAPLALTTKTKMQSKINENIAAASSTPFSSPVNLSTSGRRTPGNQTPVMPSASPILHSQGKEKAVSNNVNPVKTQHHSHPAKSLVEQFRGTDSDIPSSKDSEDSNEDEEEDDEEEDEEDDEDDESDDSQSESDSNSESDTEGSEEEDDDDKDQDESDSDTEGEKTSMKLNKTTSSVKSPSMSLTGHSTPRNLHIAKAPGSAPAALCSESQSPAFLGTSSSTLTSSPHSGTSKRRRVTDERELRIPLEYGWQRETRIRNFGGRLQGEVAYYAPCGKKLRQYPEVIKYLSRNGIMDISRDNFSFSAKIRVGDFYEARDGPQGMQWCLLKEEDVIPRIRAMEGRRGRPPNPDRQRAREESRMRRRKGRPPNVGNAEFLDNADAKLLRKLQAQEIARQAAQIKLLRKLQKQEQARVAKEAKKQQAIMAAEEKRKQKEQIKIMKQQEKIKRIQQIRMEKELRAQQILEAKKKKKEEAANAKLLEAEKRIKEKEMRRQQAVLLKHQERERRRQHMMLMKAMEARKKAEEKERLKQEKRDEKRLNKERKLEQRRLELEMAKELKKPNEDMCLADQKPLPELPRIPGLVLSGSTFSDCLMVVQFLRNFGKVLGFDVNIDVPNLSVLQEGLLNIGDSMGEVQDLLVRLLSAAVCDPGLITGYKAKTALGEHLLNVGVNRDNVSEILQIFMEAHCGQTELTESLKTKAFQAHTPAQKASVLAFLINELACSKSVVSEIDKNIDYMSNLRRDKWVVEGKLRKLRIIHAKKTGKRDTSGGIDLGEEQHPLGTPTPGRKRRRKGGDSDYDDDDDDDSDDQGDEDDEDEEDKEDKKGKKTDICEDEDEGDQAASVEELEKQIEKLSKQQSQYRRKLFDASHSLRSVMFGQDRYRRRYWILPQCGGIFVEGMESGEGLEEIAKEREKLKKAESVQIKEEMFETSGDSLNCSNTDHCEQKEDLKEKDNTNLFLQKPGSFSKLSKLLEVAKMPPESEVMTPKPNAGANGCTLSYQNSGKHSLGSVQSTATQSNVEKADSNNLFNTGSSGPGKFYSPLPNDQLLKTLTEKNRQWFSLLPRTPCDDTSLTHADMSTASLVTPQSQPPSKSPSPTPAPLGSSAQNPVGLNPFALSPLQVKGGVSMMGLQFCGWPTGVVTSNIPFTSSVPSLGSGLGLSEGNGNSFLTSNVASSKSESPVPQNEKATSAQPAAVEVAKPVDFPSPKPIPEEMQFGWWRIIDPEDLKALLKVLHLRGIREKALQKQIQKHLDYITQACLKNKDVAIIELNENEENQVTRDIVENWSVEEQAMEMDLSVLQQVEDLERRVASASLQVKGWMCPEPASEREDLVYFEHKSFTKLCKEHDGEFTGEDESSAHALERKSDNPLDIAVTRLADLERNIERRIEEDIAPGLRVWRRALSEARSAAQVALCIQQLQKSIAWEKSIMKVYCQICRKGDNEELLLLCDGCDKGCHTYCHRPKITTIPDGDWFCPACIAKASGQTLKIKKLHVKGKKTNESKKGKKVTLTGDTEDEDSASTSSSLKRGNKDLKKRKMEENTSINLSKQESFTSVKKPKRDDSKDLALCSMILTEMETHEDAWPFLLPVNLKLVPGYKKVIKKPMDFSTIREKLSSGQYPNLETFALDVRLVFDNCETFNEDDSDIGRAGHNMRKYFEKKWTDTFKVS
Outline: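 Protein-peptide AlphaScreen: BAZ2B 50 nM, b-H3K14Ac 50 nM, 1x PBS pH 7.4 + 0.01% Tween-20. Preincubation 30 min RT; cpd 30 min RT (top 110 uM); beads 20 min RT, light-protected.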
In the case of `Cn1cc(/C=C2\SC(=S)N(NC(=O)c3ccccc3)C2=O)c2ccccc21`, the Potency is reported as inconclusive: 22.4 µM [inhibitor, full curve, poor fit]. `O=S(=O)(c1ccc(NCCOCCO)nc1)N1CCCCC1` was tested, and the Potency was “inactive”. For `O=C(NC(NC(=S)Nc1ccc(Cl)cc1)C(Cl)(Cl)Cl)c1ccco1` (centres undefined), the Potency was inconclusive: 89.1 µM [inhibitor, single point]. `Cc1cc(C)n(CC(=O)N/N=C/c2cc(Br)cc([N+](=O)[O-])c2O)n1` was tested, and the Potency was inconclusive: 50.1 µM [inhibitor, partial curve]. With `O=C(CNC(=O)c1ccc(Cl)cc1Cl)OCN1C(=O)c2ccccc2C1=O` the Potency was “inactive”. With `C=CCc1ccc(OCCCCOc2ccc(C(=O)O)cc2)c(OC)c1` the Potency was inconclusive: 79.4 µM [inhibitor, single point]. `Cc1ccc(Cn2c(SCC(=O)NCC3CCCO3)nc3c2c(=O)n(C)c(=O)n3C)cc1` (centres undefined) was tested, and the Potency was inconclusive: 70.8 µM [inhibitor, single point]. For `COc1ccc(CCNC(=O)c2oc3ccc(S(=O)(=O)N4CCOCC4)cc3c2C)cc1OC`, the Potency was inconclusive: 89.1 µM [inhibitor, single point]. `O=P(O)(COc1ccccc1)COc1ccccc1` was tested, and the Potency was inconclusive: 89.1 µM [inhibitor, single point]. With `CCCC(C)c1nnc(NC(=O)CN2C(=O)c3ccccc3C2=O)s1` (centres undefined) the Potency was inconclusive: 79.4 µM [inhibitor, partial curve]. With `CC(=O)N(CC1CCCO1)c1nnc(-c2ccccn2)s1` (centres undefined) the Potency was active: 50.1 µM. `O=C1CSC(=S)N1/N=C/c1cc(Br)ccc1O` was tested, and the Potency was active: 5.01 µM. `COC(=O)c1cc(S(=O)(=O)N2CCN(c3cccc(C)c3C)CC2)c[nH]1` was tested, and the Potency was inconclusive: 89.1 µM [inhibitor, single point]. For `Cc1ccc(-n2c(C)cc(C(=O)COC(=O)c3c(C)noc3C)c2C)cc1`, the Potency was inconclusive: 89.1 µM [inhibitor, single point]. For `O=C1C2CC=CCC2C(=O)N1c1cccc(OS(=O)(=O)c2ccc3ccccc3c2)c1` (centres undefined), the Potency was inconclusive: 7.08 µM [inhibitor, single point]. In the case of `COc1ccc(N=C2C(=O)N3CCCc4cccc2c43)cc1`, the Potency is reported as inconclusive: 56.2 µM [inhibitor, partial curve]. For `CCN1C(=O)c2ccccc2Sc2ccc(NC(=O)Cc3ccc(OC)cc3)cc21`, the Potency was “inactive”. `CCOC(=O)c1ccc2[nH]c3c(c2c1)CCCC3` was tested, and the Potency was active: 31.6 µM. In the case of `O=C(/C=C/c1ccccc1)N1CCN(c2ccc([N+](=O)[O-])c(N3CCOCC3)c2)CC1`, the Potency is reported as inconclusive: 35.5 µM [inhibitor, partial curve]. In the case of `COc1ccc(-n2c(Cc3cccn3C)nnc2SCC(=O)Nc2ccccc2)cc1`, the Potency is reported as inconclusive: 50.1 µM [inhibitor, partial curve]. For `CN(Cc1ncc[nH]1)Cc1cn(-c2ccccc2)nc1-c1ccc2c(c1)OCO2`, the Potency was inconclusive: 39.8 µM [inhibitor, partial curve]. In the case of `CC1CCN(S(=O)(=O)c2ccc3c(c2)N(CC(=O)NCc2cccnc2)C(=O)CS3)CC1`, the Potency is reported as “inactive”. For `CCOc1ccc(OCC(=O)Nc2ccccc2N2CCCC2)cc1`, the Potency was inconclusive: 39.8 µM [inhibitor, partial curve]. For `Cc1cc(C)c2c(=O)cc(C(=O)Nc3ccc(S(=O)(=O)Nc4onc(C)c4C)cc3)oc2c1`, the Potency was inconclusive: 39.8 µM [inhibitor, partial curve]. `O=C(C1=C(O)C(=O)N(Cc2ccco2)C1c1cccs1)c1cccs1` (centres undefined) was tested, and the Potency was inconclusive: 89.1 µM [inhibitor, single point]. With `COc1ccc2c(c1)c1c(c(=O)n(-c3cccc(C)c3)c(=O)n1CC(=O)N1CCCC1)n2C` the Potency was inconclusive: 89.1 µM [inhibitor, single point]. For `O=[N+]([O-])c1cc(-c2nnc(Nc3ccc(O)cc3)c3ccccc23)ccc1N1CCOCC1`, the Potency was inconclusive: 31.6 µM [inhibitor, full curve]. For `C[n+]1ccc(/C=C/c2ccc(Br)cc2)cc1`, the Potency was active: 56.2 µM. In the case of `Oc1ccc2ccccc2c1CN1CCN(C/C=C/c2ccccc2)CC1`, the Potency is reported as inconclusive: 44.7 µM [inhibitor, partial curve]. In the case of `Clc1ccc(CN2CCN(c3ncccn3)CC2)c(Cl)c1`, the Potency is reported as inconclusive: 89.1 µM [inhibitor, single point]. With `COc1ccccc1N1CCN(Cc2ccc(OC)c3ccccc23)CC1` the Potency was active: 28.2 µM. In the case of `Cc1cc(/C=N/n2cnnc2)c(C)n1-c1cccc(Cl)c1`, the Potency is reported as inconclusive: 50.1 µM [inhibitor, partial curve]. In the case of `O=C(O)[C@@H]1[C@H]2C[C@H]3c4[nH]c5ccccc5c4CCN3C[C@@H]2CC[C@@H]1O`, the Potency is reported as inconclusive: 89.1 µM [inhibitor, single point]. `CC(C)OCCCNC(=S)NNC(=O)C(c1ccccc1)c1ccccc1` was tested, and the Potency was “inactive”. For `O=C(Cn1ccc2cc(S(=O)(=O)N3CCCCCC3)ccc21)NCCc1ccc(Cl)cc1`, the Potency was “inactive”. In the case of `CCC(C)NCCCOc1c(C)cc(C)cc1Br` (centres undefined), the Potency is reported as active: 79.4 µM. With `Cc1ccc2c(Cl)cc(Cl)c(OCC(=O)NCc3ccco3)c2n1` the Potency was active: 39.8 µM. For `COc1ccccc1N1CCN(C(=O)Cn2c(=O)oc3cc(S(=O)(=O)N4CCCC4)ccc32)CC1`, the Potency was “inactive”. In the case of `NC(=O)C1c2ccccc2Oc2ccccc21`, the Potency is reported as “inactive”. In the case of `COc1cccc(CNC(=O)c2c(C)oc3nc(C)nc(N4CCOCC4)c23)c1`, the Potency is reported as “inactive”. With `Cc1ccc(-n2ncc3c(NCc4cccnc4)ncnc32)cc1C` the Potency was inconclusive: 79.4 µM [inhibitor, single point]. `NS(=O)(=O)c1ccc(N/N=C/c2cn(-c3ccccc3)nc2-c2ccccc2)c([N+](=O)[O-])c1` was tested, and the Potency was inconclusive: 56.2 µM [inhibitor, partial curve]. With `COC(=O)C(C(=O)OC)c1ccc(-n2cccc2)cc1` the Potency was inconclusive: 56.2 µM [inhibitor, partial curve]. `C=C(C)CNC(=S)N/N=C(\C)c1ccc(OC)cc1` was tested, and the Potency was inconclusive: 89.1 µM [inhibitor, single point].
